Test results as given in paper PMC12136788.
This is one part of the list.

T1: UNK ZnF1-3 (human, UniProt Q9C0B0 31-174)
T1 sequence: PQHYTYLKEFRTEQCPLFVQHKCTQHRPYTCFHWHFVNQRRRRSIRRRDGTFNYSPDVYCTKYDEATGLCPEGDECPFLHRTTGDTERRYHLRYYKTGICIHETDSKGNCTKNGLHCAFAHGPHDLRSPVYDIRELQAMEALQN

B1: chr13:111857651:111857652:+_ENSG00000102606_ENST00000375736|hu_hu|FALSE|FALSE (ssRNA)
RNA: GGGAGUUCUACAGUCCGACGAUCGCACACACGGAGUCACUCCCCAGCCCGAUGUCUGCUGUUACUUUAUUUAGAGUCACUAAGGAACUGAGGACCUUGUUAAAAUUCUGCCCCUGAUACAAAUCAUUUGCAUCAAACGUCUCCCAACAGAGGAUUGAGCAUCA
B2: chr7:63234579:63234580:-_ENSMUSG00000047037_ENSMUST00000052204|mus_hu|FALSE|FALSE (ssRNA)
RNA: GGGAGUUCUACAGUCCGACGAUCCGUUUGGGCUGCAGAGGGCUGGCUGGGCCUCUGCUCUGGUGCUGAGCCAUGCUCCCCGCUAUCCACCAGACCACCUGUUACUAUCCAGUCAAUUCUAACACCAUGAUCGAGGACCUCUUCCAACAGAGGAUUGAGCAUCA
B3: chr1:163112212:163112213:-_ENSG00000143248_ENST00000313961|hu_hu|hu_hu_hu_mus_False|38_48 (ssRNA)
RNA: GGGAGUUCUACAGUCCGACGAUCUUUUAUUAUCAGUAAGAGUGAGUUACAUACUAGGCAAAGUAUUGGAUACAAUAAUCAGGAAACAAACACAAUUUUUCUUGAAUUUAAAACUUUAUGAGCGAAGUGCUGGCACAGGACUUACAACAGAGGAUUGAGCAUCA
B4: chr5:31101443:31101444:+_ENSMUSG00000029168_ENSMUST00000114729|mus_hu|motif|central (ssRNA)
RNA: GGGAGUUCUACAGUCCGACGAUCGUGGCUUCUGGGUCAGUAUCAGAAAAGCCCUCAUCACGACAUCGGCUUGACAGAGACCGGCUGUGGACUCCUAGCACUACACACACGCACGCACACGCACACACAGUAGCACAAUUUUCUCAACAGAGGAUUGAGCAUCA
B5: chr2:217002811:217002812:+_ENSG00000079246_ENST00000392132|hu_hu|motif|central (ssRNA)
RNA: GGGAGUUCUACAGUCCGACGAUCCAAGGAUGAAAACAUGUAUUGCCGCAAGUCUUCCAUGAAAGGCAGCUGCACAUACACGGAACACUCAUAGUUAUGCUUGAUAUGAGGAAAAGCCACGCCGACUUGAGGAUUAGCUCUUUUCAACAGAGGAUUGAGCAUCA
B6: chr5:54390236:54390237:+_ENSMUSG00000039156_ENSMUST00000071083|mus_mus|FALSE|FALSE (ssRNA)
RNA: GGGAGUUCUACAGUCCGACGAUCACUCAGCGACAUACAGGGAUCUGUCAGCAGCGCCUGGCGCUCGCCCGCAGCCGCAGCCGAAGGAGACGCCGCCGCUCCGGCCGAUCCCGACGCGCGCCGCCCGCGGAGGUGCCGGGGCACCAACAGAGGAUUGAGCAUCA
B7: chr7:151048522:151048523:+_ENSG00000013374_ENST00000566856|hu_mus|hu_hu_hu_mus_True|8_48 (ssRNA)
RNA: GGGAGUUCUACAGUCCGACGAUCCUGUUUCUUAUUUAUUACGAUCUUGAUGUAAUUUUCUUGAAAUCCGAAAGUUUCAGCUAUUUGGGACCUCAGUUCUCUACCAGUGACAUGCAAGCGGGUCUCCAACAAGUUUUUCUUAUCCAACAGAGGAUUGAGCAUCA
B8: chr16:94690093:94690094:+_ENSMUSG00000040785_ENSMUST00000117648|mus_hu|mus_mus_mus_hu_True|1_8 (ssRNA)
RNA: GGGAGUUCUACAGUCCGACGAUCGGGCUGGGAUGACGGACACACAGCCUCGAUUCCAGGGGGAAAAAGUCUUAGUCGAUACUAAUUAAAAAGUGUUAAUGAUUUUUGAAAAUCAGAUUACAUCUAUUUGAAUCAUAAGCACUUCAACAGAGGAUUGAGCAUCA
B9: chr1:130485734:130485735:-_ENSMUSG00000045382_ENSMUST00000052172|mus_mus|motif|central (ssRNA)
RNA: GGGAGUUCUACAGUCCGACGAUCGAUGAAGGAGUCGAUGCUGAUCCCCACAUAAUAUGGCAGCCAGCAGGCAAAGAAAGCGGGGAUGAGGAUGACUGUCGUCUUGAGGGCCUUGCGCUUCUGGUGGCCCUUGGAGUGUGACAGCAACAGAGGAUUGAGCAUCA
B10: chr4:41258970:41258971:+_ENSG00000154277_ENST00000284440|hu_hu|FALSE|FALSE (ssRNA)
RNA: GGGAGUUCUACAGUCCGACGAUCUGAGCUGCAUCUUCGCGGAGCGCCCGGCAGAAAUAGCCUAGGGAAGACGAAAAACAGCUAGCGGAGCCGCCCAGGCUGCAGCUAUAAAGCGCCGGCCAGACGCACUGUGAGGCCUGUGCACAACAGAGGAUUGAGCAUCA
B11: chr1:8037743:8037744:+_ENSG00000116288_ENST00000493373|perfect_dup|FALSE|FALSE (ssRNA)
RNA: GGGAGUUCUACAGUCCGACGAUCGCCAUUCAUCAUUUUGUCCUUAGCCAGUGGGUGUGUUGUGACCUUGCAUCCAAAACCUACUUCGUGAGCCAACAGAGCCGUAGGACCUGCACAGAUGGCAGCUAUGAGGCCCUUCCUGCUCAACAGAGGAUUGAGCAUCA
B12: chr3:127788656:127788657:+_ENSG00000058262_ENST00000243253|hu_mus|FALSE|FALSE (ssRNA)
RNA: GGGAGUUCUACAGUCCGACGAUCAAUUCACUUCUACUGGUUUUUUGCCAAUGCCAGAAAAAGCAAAAUUUCAAAUUGGAAAUUUCCUAGCACUUUACACAGUGGAAUGAAAAGAUAUGAAAUUUUAAAAAAAAUUAAAAAAAACAACAGAGGAUUGAGCAUCA
B13: chr22:32879901:32879902:+_ENSG00000100225_ENST00000397426|hu_mus|hu_hu_hu_mus_False|48_58 (ssRNA)
RNA: GGGAGUUCUACAGUCCGACGAUCCUCUUCCAUACUCAUGGCAUCCUGAAUUGACUCAGCUUCAACAUUUUGACUAGGCCCUAACAUACUGUCGUCAGUCCAGGCAUCAAAUGGGGUGGCCUGUCCUUGGGAUGAAUCAGUCCCCAACAGAGGAUUGAGCAUCA
B14: chr8:59070621:59070622:+_ENSMUSG00000038206_ENSMUST00000040218|mus_hu|FALSE|FALSE (ssRNA)
RNA: GGGAGUUCUACAGUCCGACGAUCGAUAAACAAAAUUAGGAAAAAUUCUGCAAAAUUAUUUAGUUCCCCAAGGAAAUUACUAAAAUAGAAAAUGGCAAAAGAAAAAAAGGUUGCACACUGAAGCUUGAUUGUAUACUCAGGCUACAACAGAGGAUUGAGCAUCA
B15: chr16:20679341:20679342:+_ENSMUSG00000045983_ENSMUST00000044783|mus_mus|FALSE|FALSE (ssRNA)
RNA: GGGAGUUCUACAGUCCGACGAUCUGGGGGUGGUGAUGGGGUUGGAGAAGGCGACGAAGGCUGAGAUUCUGUGCCAGGGCUAUGCUCUGGGCCAGGCAGUCCUGGCCGCCCCCCAAUGGCUGCUCCCUGCGACCGGUCAUCUGGCAACAGAGGAUUGAGCAUCA
B16: chr4:144460044:144460045:+_ENSG00000153147_ENST00000283131|hu_mus|hu_hu_hu_mus_False|58_58 (ssRNA)
RNA: GGGAGUUCUACAGUCCGACGAUCACGGUCCAUAGCCUGAAGAUCAACUUGCGGAUUCCAAUCUGAGUCAUAUAAAAUUACUACAUCAGCAGUUGCAAGAUUGAUGCCCAGACCACCAGCACGUGUGCUUAGCAUAAAUACAAACAACAGAGGAUUGAGCAUCA
B17: chr7:52703327:52703328:+_ENSMUSG00000003865_ENSMUST00000003964|mus_mus|FALSE|FALSE (ssRNA)
RNA: GGGAGUUCUACAGUCCGACGAUCCACCUUCACACGGUCGGCACUGCUGUUGAAAAGGCCAAUUCGGCGGAUGGUGGUCAAGAUGGGGUCUGAGGAGUCGUCCAGCAUGUUGUGGGUGCACACUGGUGGGAAAGACUGCCGCUGCAACAGAGGAUUGAGCAUCA
B18: chr2:219460011:219460012:+_ENSG00000144580_ENST00000542068|hu_mus|motif|central (ssRNA)
RNA: GGGAGUUCUACAGUCCGACGAUCAAACUCAUUCAGCUGCUUCUACAAUCAUGAGGAGAUGGCACUAUGAAAACUCACGCGGGAGAACGGGGUCAAGUAGUCUACCAUUUGGAUCCAGGCGCUUACUCCGUUUGAGAAGACACCCAACAGAGGAUUGAGCAUCA
B19: chr4:115894766:115894767:+_ENSMUSG00000028698_ENSMUST00000030464|mus_hu|mus_mus_mus_hu_True|1_8 (ssRNA)
RNA: GGGAGUUCUACAGUCCGACGAUCUUCCACACGGAAAUGUACUUCGGGUUUUCCAACGGCCAGUACCAGUCCGGCCAAACUACCCGAACAGGGUCCUCCCCCUCUCUCCUACAGAACACAACAAAAUAACAAAAUACCCCGAACCAACAGAGGAUUGAGCAUCA
B20: chr2:61719535:61719536:-_ENSG00000082898_ENST00000401558|hu_hu|motif|central (ssRNA)
RNA: GGGAGUUCUACAGUCCGACGAUCGUUAACUACAGUCUUCAGAAAUUUCCAGUGAGCUCUCAAAAAACGUGGGUAUUGACCGGCGGUGUACAUGAUAUUUGAUGCAAUAAUAGCUUUAUUAUCUUUGCCUCUUUUCUGUUCACACAACAGAGGAUUGAGCAUCA
B21: chr14:76904430:76904431:+_ENSMUSG00000022010_ENSMUST00000022587|mus_mus|mus_mus_mus_hu_True|28_38 (ssRNA)
RNA: GGGAGUUCUACAGUCCGACGAUCUGCAGCCAAAAACACCCUCGUGGAAAAAAAGAGGGAACACCAGCAGCCUUGUAUAAGCUAGAUAAAAUCUUCUAGCUGUCUGCAGCUCAGGGCGAAACAGAAAACGGCAGCCCUAAUUUACAACAGAGGAUUGAGCAUCA
B22: chr1:151373259:151373260:+_ENSG00000159377_ENST00000290541|hu_hu|FALSE|FALSE (ssRNA)
RNA: GGGAGUUCUACAGUCCGACGAUCCAAGUAUGCACCAUAACCAGUGGCCAGCGAAGGGGCUUCAUAGGCUACACCAAGCAUGUCCACAUAACCGAGGAAGCUCUCUCCAUCAGCAUAGCCUCCGAUGACCAUGGUGUUCCACAACAACAGAGGAUUGAGCAUCA

Biological target: T1, UNK ZnF1-3
Assay: nsRBNS (natural sequence RNA bind-n-seq); RBNS binding buffer (assumed for nsRBNS): 25 mM Tris pH 7.5, 150 mM KCl, 3 mM MgCl2, 0.01% Triton X-100, 500 ug/ml BSA, 20 U/ml SUPERase-In, 4 C; UNK is unkempt and MSI1 is Musashi-1; names of the RNAs are library labels; protein concentration not given here; high values mean tight binding

Binder	binding signal [enrichment R]
B1	1.17
B2	0.728
B3	1.37
B4	1.24
B5	0.479
B6	0.683
B7	0.665
B8	0.493
B9	0.781
B10	1.25
B11	1.05
B12	2.75
B13	1.18
B14	2.93
B15	0.948
B16	1.47
B17	1.31
B18	1.42
B19	1.24
B20	1.11
B21	2.05
B22	0.96
